Target: T1, 35S-labeled full-length ERα(1-595) (Homo sapiens (Human), UniProt P03372 1-595, 35S-labeled in in vitro transcription/translation (TNT) reactions)
T1 construct: In vitro translated from pcDNA3.1-ERα; also called 35S-labeled ERα
T1 sequence: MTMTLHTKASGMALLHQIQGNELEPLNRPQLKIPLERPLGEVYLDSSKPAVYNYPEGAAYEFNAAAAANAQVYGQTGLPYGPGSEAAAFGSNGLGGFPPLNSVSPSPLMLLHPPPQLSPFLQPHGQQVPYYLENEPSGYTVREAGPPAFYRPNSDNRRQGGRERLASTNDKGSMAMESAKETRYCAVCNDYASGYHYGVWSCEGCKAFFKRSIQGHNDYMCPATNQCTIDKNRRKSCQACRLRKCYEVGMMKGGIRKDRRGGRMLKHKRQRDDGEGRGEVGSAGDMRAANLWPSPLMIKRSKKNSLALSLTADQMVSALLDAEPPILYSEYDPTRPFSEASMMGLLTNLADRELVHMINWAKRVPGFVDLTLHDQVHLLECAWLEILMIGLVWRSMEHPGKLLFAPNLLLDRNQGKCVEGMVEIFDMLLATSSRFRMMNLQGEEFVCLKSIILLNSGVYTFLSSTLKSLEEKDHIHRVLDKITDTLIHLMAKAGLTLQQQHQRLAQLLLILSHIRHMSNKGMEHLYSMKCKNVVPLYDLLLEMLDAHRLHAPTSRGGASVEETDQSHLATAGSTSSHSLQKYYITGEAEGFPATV
Experiment: GST pull-down on glutathione beads, 35S-labeled ERα, phosphoimaging
Description: To localize the region within MUC1-CD that interacts with ERα, ³⁵S-labeled full length ERα was incubated with deletion mutants of MUC1-CD.

- binding result: no binding
B1: GST (other)
chain: not shown
notes: Negative control in the pull-down assays; also called glutathione S-transferase

Reference: patent US20080311575A1 (published 2008)
